From EP4635500A1, “THERAPEUTIC AGENT FOR BACTERIAL INFECTION” (Sumitomo Pharma Co., Ltd., priority 2022, dated 2024) come the findings set out here.

For test [1], the system named is A. baumannii. Kind of test: MIC, broth microdilution, CDC/FDA Antibiotic Resistance Isolate Bank (Example 7, Tables 9, 13, 14). In kind it is cell-based, Acinetobacter baumannii.
Test [2] concerns Acinetobacter baumannii CDC-277. Nature of the test: Respiratory (lung) infection model of neutropenic mouse (Example 17, FIG. 3). The settings on record: 26 hours after infection; MEPM 100 mg/kg + cilastatin 100 mg/kg q3h, 8 doses s.c.
Setting [3] is: Acinetobacter baumannii, A. baumannii KUB No. 5530, AR Bank #33, OXA-94, NDM-1, read-out: MIC.
Where [4] appears, read: Acinetobacter baumannii, A. baumannii KUB No. 5532, AR Bank #35, OXA-66, OXA-72, read-out: MIC.
Setting [5] is: Acinetobacter baumannii, A. baumannii KUB No. 5533, AR Bank #36, OXA-24, OXA-65, read-out: MIC.
The mark [6] stands for this setting: Acinetobacter baumannii, A. baumannii KUB No. 5542, AR Bank #45, OXA-23, OXA-69, read-out: MIC.
Setting [7] is: Acinetobacter baumannii, A. baumannii KUB No. 5549, AR Bank #52, OXA-58, OXA-100, read-out: MIC.
Where [8] appears, read: Acinetobacter baumannii, A. baumannii KUB No. 5553, AR Bank #56, OXA-23, OXA-66, read-out: MIC.
Where [9] appears, read: Acinetobacter baumannii, A. baumannii KUB No. 5560, AR Bank #63, OXA-23, OXA-24, OXA-65, read-out: MIC.

Values after ≈ are worked out from the molar mass of the structure shown. Where two headings read alike, the source gives them in different places. Some results are limits rather than exact numbers.

With `NCC[C@H](O)C(=O)N[C@@H]1C[C@H](N)[C@@H](O[C@H]2O[C@H](CN)[C@@H](O)[C@H](O)[C@H]2O)[C@H](O)[C@H]1O[C@H]1O[C@H](CO)[C@@H](O)[C@H](N)[C@H]1O` [Amikacin, amikacin], the minimum inhibitory concentration (MIC) stood at 2 µg/mL (≈ 3.42 µM) in test [1] (setting [3]); 4 µg/mL (≈ 6.83 µM) in test [1] (setting [4]); 64 µg/mL (≈ 109 µM) in test [1] (setting [5]); 2 µg/mL (≈ 3.42 µM) in test [1] (setting [6]); 0.5 µg/mL (≈ 0.854 µM) in test [1] (setting [7]); 2 µg/mL (≈ 3.42 µM) in test [1] (setting [8]). Also, in test [1] (setting [9]), the MIC was 16 µg/mL (≈ 27.3 µM).

Turning to `C[C@@H](O)[C@H]1C(=O)N2C(C(=O)O)=C(S[C@@H]3CN[C@H](C(=O)N(C)C)C3)[C@H](C)[C@H]12` [MEPM, meropenem], the “increase in the number of bacteria in the lungs compared to the start of treatment” value in test [2] is 0.1 logs.

Turning to `CC(C)(O/N=C(\C(=O)N[C@@H]1C(=O)N2C(C(=O)[O-])=C(C[N+]3(CCNC(=O)c4ccc(O)c(O)c4Cl)CCCC3)CS[C@H]12)c1csc(N)n1)C(=O)O` [Cefiderocol, cefiderocol], the MIC in test [1] (setting [3]) was 2 µg/mL (≈ 2.66 µM); in test [1] (setting [4]) it was 0.12 µg/mL (≈ 0.16 µM); in test [1] (setting [5]), 0.5 µg/mL (≈ 0.665 µM); in test [1] (setting [6]) it was 0.5 µg/mL (≈ 0.665 µM); in test [1] (setting [7]), ≤ 0.06 µg/mL; in test [1] (setting [8]), 0.25 µg/mL (≈ 0.332 µM). Besides, the MIC in test [1] (setting [9]) was determined as 2 µg/mL (≈ 2.66 µM).

For `C[C@H]1COc2c(N3CCN(C)CC3)c(F)cc3c(=O)c(C(=O)O)cn1c23` [Levotloxacin], the MIC in test [1] (A. baumannii KUB No. 5530, AR Bank #33, OXA-94, NDM-1) was found to be 8 µg/mL (≈ 22.1 µM); in test [1] (A. baumannii KUB No. 5532, AR Bank #35, OXA-66, OXA-72), 16 µg/mL (≈ 44.3 µM); in test [1] (A. baumannii KUB No. 5533, AR Bank #36, OXA-24, OXA-65) it was 64 µg/mL (≈ 177 µM); in test [1] (A. baumannii KUB No. 5542, AR Bank #45, OXA-23, OXA-69), 8 µg/mL (≈ 22.1 µM); in test [1] (A. baumannii KUB No. 5549, AR Bank #52, OXA-58, OXA-100) it was 4 µg/mL (≈ 11.1 µM); in test [1] (A. baumannii KUB No. 5553, AR Bank #56, OXA-23, OXA-66), 16 µg/mL (≈ 44.3 µM). In addition, the MIC in test [1] (A. baumannii KUB No. 5560, AR Bank #63, OXA-23, OXA-24, OXA-65) was determined as 16 µg/mL (≈ 44.3 µM).

In the case of `CO/N=C(\C(=O)N[C@@H]1C(=O)N2C(C(=O)[O-])=C(C[n+]3ccn4ncccc43)CS[C@H]12)c1nsc(N)n1` [Cefozopran, cefozopran], the MIC in test [1] (setting [3]) was > 64 µg/mL; in test [1] (setting [4]), 64 µg/mL (≈ 124 µM); in test [1] (setting [5]), 32 µg/mL (≈ 62.1 µM); in test [1] (setting [6]), 64 µg/mL (≈ 124 µM); in test [1] (setting [7]), 2 µg/mL (≈ 3.88 µM); in test [1] (setting [8]), > 64 µg/mL. Also, in test [1] (setting [9]), the MIC is > 64 µg/mL.
